In all, about 110,000 compounds were measured (“z-score”: median about -0.1, highest 2% from about 2 on). The list shows a part of the results. Activity calls are given as the source filed them.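 How the source made its calls: active means z-score in the third read window above 3 or below -3; inactive means the rest.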
Each compound was assayed against Metabotropic glutamate receptor 8 (Rattus norvegicus) (UniProt P70579) (assay: mGluR8 Gi/Go-coupled signaling modulation – cell-based, rat, thallium flux, HTS, primary screen (AID 488969)). Details: HEK293 rat mGluR8, GIRK (G protein-gated inwardly rectifying potassium channel) thallium flux, FluoZin2; at 10 µM; stronger effect = higher value; submaximal glutamate (EC20) added with thallium.
Chain of UniProt P70579 (P70579 whole entry, looked up): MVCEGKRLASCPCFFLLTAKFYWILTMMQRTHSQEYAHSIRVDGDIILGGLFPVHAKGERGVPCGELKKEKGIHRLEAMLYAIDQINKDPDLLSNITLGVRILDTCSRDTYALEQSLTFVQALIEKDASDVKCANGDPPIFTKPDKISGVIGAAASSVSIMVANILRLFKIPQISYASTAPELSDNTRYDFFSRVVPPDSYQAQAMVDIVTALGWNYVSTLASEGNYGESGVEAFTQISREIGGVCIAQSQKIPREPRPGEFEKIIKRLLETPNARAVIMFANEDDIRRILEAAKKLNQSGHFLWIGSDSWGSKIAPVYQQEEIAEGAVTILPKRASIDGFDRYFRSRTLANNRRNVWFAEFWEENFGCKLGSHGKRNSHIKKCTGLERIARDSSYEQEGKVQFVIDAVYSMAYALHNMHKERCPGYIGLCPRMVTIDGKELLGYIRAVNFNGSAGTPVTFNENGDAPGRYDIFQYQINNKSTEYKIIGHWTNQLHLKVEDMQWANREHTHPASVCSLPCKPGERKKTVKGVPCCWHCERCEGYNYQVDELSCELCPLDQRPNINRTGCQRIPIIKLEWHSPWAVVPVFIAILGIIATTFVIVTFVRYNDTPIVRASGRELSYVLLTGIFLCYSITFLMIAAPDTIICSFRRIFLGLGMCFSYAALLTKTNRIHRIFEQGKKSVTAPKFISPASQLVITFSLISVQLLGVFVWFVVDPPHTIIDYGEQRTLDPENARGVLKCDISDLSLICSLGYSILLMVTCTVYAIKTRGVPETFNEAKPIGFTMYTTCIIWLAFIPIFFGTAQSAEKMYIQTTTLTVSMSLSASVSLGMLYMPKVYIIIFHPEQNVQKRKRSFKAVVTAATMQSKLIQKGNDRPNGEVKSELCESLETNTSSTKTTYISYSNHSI
Work on `Cc1cc(NC(=O)CCCC(=O)NCc2cccs2)no1` yielded a z-score of 0.538.
Compound `Fc1ccc(Nc2cccc3nccnc23)cc1` has a z-score of 0.914.
`CCc1c(C)nc2c(OC)cccc2c1SCCC(=O)O` showed a z-score of -0.422.
In the case of `CCn1c(Cc2ccc(OC)cc2)nnc1SCC(=O)N1CCN(c2ccccc2)CC1`, the z-score is reported as 0.352.
For `C/C(=C\C(=O)c1ccc(C)o1)Nc1ccc2c(c1)OCO2`, the z-score was -0.339.
`O=C(CCS(=O)(=O)c1cccs1)Nc1ccc(C(=O)NCc2ccc(F)cc2)cc1` showed a z-score of 0.349.
For `COc1cccc(OCC(=O)NNC(=O)Cc2cccs2)c1`, the z-score was -0.0246.
`CC1(C)Cc2c(c(-c3ccco3)[nH]c(=O)c2C#N)CO1` gave a z-score of 0.117.
For `CCN(CC)c1ccc(/C=N/Nc2cccc(C)c2)c(O)c1`, the z-score was -0.281.
In the case of `COc1ccc(-c2nc3cc(C)ccn3c2NCC2CCCO2)cc1OC` (stereo not drawn), the z-score is reported as -1.39.
Compound `Cc1c(C(=O)NCCC2=CCCCC2)oc2ccc(S(=O)(=O)N3CCOCC3)cc12` has a z-score of -1.03.
`COc1cc(OC)c(OC)cc1CN1CCCC(C(=O)N2CCCCC2)C1` (stereo not drawn) gave a z-score of 0.419.
`Cc1cccc(-n2nc3c(c2NC(=O)c2ccc(Br)o2)CSC3)c1` gave a z-score of -0.288.
`Cc1ccc(C)c(NC(=O)c2ccc(N(C)S(C)(=O)=O)cc2)c1` showed a z-score of 0.222.
Compound `Cc1cccc(NC(=O)c2onc3c2CCCC3)c1C` has a z-score of -0.00447.
For `C/C(=N\NC(=O)c1ccc(Cl)cc1)c1ccc(Br)s1`, the z-score was active: 8.88.
In the case of `O=C(CN1CCCC1)N1CCCc2c1c(=O)oc1ccc(OCc3ccccc3)cc21`, the z-score is reported as -0.528.
Compound `COC(=O)COc1ccc(S(=O)(=O)N2CCN(c3ccccc3F)CC2)cc1C` has a z-score of -0.0482.
`C/C(=N\NC(=O)CNc1cccc(C)c1)c1ccc(Br)s1` showed a z-score of 0.0989.
With `Brc1ccc(C2Nc3cccc4cccc(c34)N2)o1` the z-score was -1.23.
With `COc1cccc(S(=O)(=O)N2CCN(c3ccccc3F)CC2)c1` the z-score was 0.00191.
Work on `COC(=O)c1[nH]c2ccc(C)cc2c1NC(=O)CN1CCCC(C)(C)C1` yielded a z-score of -0.603.
`COP(=O)(OC)c1nc(-c2cccc3ccccc23)oc1NCCc1ccccc1` showed a z-score of -0.188.
`CCOc1ccc(C(=O)NCC(=O)OCC(=O)Nc2ccccc2OC)cc1` showed a z-score of -0.281.
Work on `CN(CC(=O)Nc1cccc(F)c1)C(=O)CCCc1cccs1` yielded a z-score of -0.141.
For `COc1ccccc1C(=O)N1CCCC1(C#N)c1ccccc1` (stereo not drawn), the z-score was -0.00908.
Compound `Cc1ccc(OC(=O)CCC(=O)Nc2ccc(S(=O)(=O)Nc3cc(C)on3)cc2)cc1` has a z-score of -0.0291.
Compound `CN1CCN(c2nc3c(c(=O)n(C)c(=O)n3C)n2Cc2cccc3ccccc23)CC1` has a z-score of -2.98.
With `Cc1cc(OCC(=O)Nc2ccccc2F)nc(C(C)C)n1` the z-score was 0.179.
In the case of `COc1ccc(-c2coc3cc4oc(=O)c5ccccc5c4cc23)cc1F`, the z-score is reported as -0.146.
`CC(NC(=O)c1ccccc1)c1nc2ccccc2n1Cc1ccccc1F` (stereo not drawn) showed a z-score of -0.264.
In the case of `COC(=O)c1ccccc1NC(=O)N1CCN(S(=O)(=O)c2ccc(Cl)cc2)CC1`, the z-score is reported as -0.476.
`CCc1ncc(C(O)c2cccc(OC)c2OC)n1C` (stereo not drawn) was tested, and the z-score was 0.954.
Work on `CCCCN(Cc1ccco1)C(=O)c1cc2c(=O)[nH]c3ccc(C)cc3c2s1` yielded a z-score of 0.0051.
Compound `CC(C)c1ccc(N(CC(=O)N/N=C/c2ccc(OC3CSC3)cc2)S(=O)(=O)c2ccccc2)cc1` has a z-score of -0.152.
Compound `C=CCc1c(C)nc(C)nc1N/N=C/c1ccccc1O` has a z-score of 2.25.
`CCOCCCNC(=O)C(NC(=O)CNC(=O)c1ccccc1)c1ccccc1` (stereo not drawn) was tested, and the z-score was -0.0841.
`Cc1nc2c(C)cccc2cc1C(=O)N/N=C/c1cccnc1` showed a z-score of -0.392.
With `O=C(C1CC1)N(Cc1ccco1)c1nc(-c2ccccc2)cs1` the z-score was -0.135.
With `COc1ccc(N(CC(=O)NCc2cccs2)S(=O)(=O)c2cccnc2)cc1` the z-score was -0.456.
For `COc1cc2c(cc1OC)C(c1cccs1)NCC2` (stereo not drawn), the z-score was -0.269.
`Cc1cc(Cl)ccc1OCC(=O)NCc1ccncc1` was tested, and the z-score was -0.405.
Work on `Cc1ccc(C2OCC3(CO)COC(c4ccc(C)cc4)N23)cc1` (stereo not drawn) yielded a z-score of -0.0099.
`COCCNC(=O)c1onc(CSc2cc(C)ccc2C)c1C(=O)O` gave a z-score of -0.0769.
In the case of `CC1=C(C(=O)Nc2ccccn2)C(c2ccccc2)n2ncnc2N1` (stereo not drawn), the z-score is reported as -0.123.
`COc1ncnc2c1N=C1CC(C)(C)CC(N)=C1S2` gave a z-score of 0.0669.
For `Cc1n(CC(O)COC2CCCCC2)c2ccccc2[n+]1C` (stereo not drawn), the z-score was 0.638.
Work on `CN(C)c1ccc([N+](=O)[O-])cc1C(=O)O` yielded a z-score of -0.133.
For `O=C(Nc1ccccc1[N+](=O)[O-])C1C(c2ccccc2)=C1c1ccccc1`, the z-score was -0.229.
In the case of `Cc1nn(C)cc1C(=O)Nc1cc(Oc2ccc(Cl)cc2)cc([N+](=O)[O-])c1`, the z-score is reported as -0.126.
Compound `CCCCOC(=O)c1ccc(NC(=O)Nc2ccc(OC)c(OC)c2)cc1` has a z-score of -0.113.
For `C=CCOc1cccc(C2C(C(=O)c3ccc(C)o3)=C(O)C(=O)N2Cc2ccncc2)c1` (stereo not drawn), the z-score was -1.94.
Compound `COc1ccc(CC(=O)Nc2ccc(-c3cn4ccccc4n3)cc2)cc1OC` has a z-score of -0.363.
`COc1cc(NC(=O)COC(=O)c2nc3nc(C)cc(C)n3n2)cc(OC)c1` gave a z-score of -0.759.
`COc1ccc(/C=N/NC(=O)CSCc2ccc([N+](=O)[O-])cc2)cc1OC` gave a z-score of -0.208.
`O=C(CCC(=O)OCCCC(F)(F)C(F)(F)F)Nc1ccc(Cl)cc1Cl` showed a z-score of -0.26.
Compound `COc1cc(C(=O)NCCc2cn3ccc(C)cc3n2)cc(OC)c1OC` has a z-score of -0.397.
In the case of `COc1ccc(C)cc1S(=O)(=O)NCCc1ccccc1`, the z-score is reported as -0.105.
Work on `CCCCOC(C)n1cc(F)c(=O)[nH]c1=O` (stereo not drawn) yielded a z-score of -0.225.
With `O=S(=O)(Nc1ccc(-n2cccc2)cc1)c1ccc(Cl)cc1Cl` the z-score was -0.0372.
`CC(C)c1ccc2occ(-c3nn[nH]n3)c(=O)c2c1` was tested, and the z-score was active: 3.29.
In the case of `CC(C)(C)NC(=O)c1ccccc1-c1nc(-c2ccccc2Cl)no1`, the z-score is reported as -0.71.
For `CCCN1C(=S)SC(C)(C)C1/[N+]([O-])=C/c1cccnc1` (stereo not drawn), the z-score was -0.17.
`Cn1c(=O)c2c(nc3sccn32)n(C)c1=O` was tested, and the z-score was active: 3.7.
`Cc1nnc(SC2CC(=O)N(c3ccccc3)C2=O)s1` (stereo not drawn) gave a z-score of -0.0552.
`Cc1cccc(N2CCN(C(=O)CCCn3c(=S)[nH]c4cc5c(cc4c3=O)OCO5)CC2)c1C` showed a z-score of -0.839.
Compound `CC(=O)c1ccc(N2CCN(C(=O)c3ccc(Br)cc3)CC2)c(F)c1` has a z-score of 0.00713.
In the case of `Cc1cc(C)c2[nH]c(O)c(N=NC(=O)c3cc4c(s3)CCCC4)c2c1`, the z-score is reported as -0.395.
Compound `COc1ccc2cc3cc(C(=O)NCc4ccco4)oc3nc2c1` has a z-score of -0.0316.
For `Cc1cccc(C)c1OCCn1nc(C(=O)O)c2ccccc2c1=O`, the z-score was 0.285.
With `COc1cc(C(=O)NC(=S)NNC(=O)c2cnccn2)cc(OC)c1OC` the z-score was -0.0805.
Work on `COc1ccccc1Nc1nc(-c2sc(NC(=O)c3ccccc3)nc2C)cs1` yielded a z-score of -0.232.
`CC(CC(C)C(=O)Nc1ccccc1C(C)(C)C)C(=O)O` (stereo not drawn) gave a z-score of -0.157.
Compound `CCCCNC(=O)NNC(=O)c1ccoc1C` has a z-score of 0.261.
Compound `CO/N=C/NC(=O)N1OC[C@@H]2COc3ccc4ccccc4c3[C@@H]21` has a z-score of 0.0191.
`COc1cccc(C2CC(c3ccc(Cl)cc3)n3nc(N)nc3N2)c1` (stereo not drawn) showed a z-score of 0.802.
`O=C(c1cccnc1)N1CCc2ccccc21` was tested, and the z-score was -0.771.
Compound `OC1CNCc2cc3c(cc21)OCCO3` (stereo not drawn) has a z-score of 0.593.
Compound `O=C1c2ccccc2C(=O)N1CCCCSc1nnc2c(Cl)cc(Cl)cn12` has a z-score of -0.0762.
With `Cc1cc(C)c2c(=O)[nH]c(SCC(=O)N3CCCCC3)nc2n1` the z-score was -0.557.
`Nc1nnc(-c2ccc(Cl)cc2)s1` gave a z-score of 0.262.
With `COc1cccc(C(=O)Nc2nnc(C(C)C)s2)c1` the z-score was -0.451.
`CCOCCn1c(C(C)C)nc2ccccc21` gave a z-score of 0.737.
For `C=CCN1CCN(C(c2ccc(Cl)cc2)c2nnnn2CCc2ccc(OC)c(OC)c2)CC1` (stereo not drawn), the z-score was 2.29.
For `Cc1ccc2c(c1)C(=O)C(=O)N2CC(=O)OC(C)C`, the z-score was 0.596.
`CCOc1ccc(NC(=O)CSc2n[nH]c(=O)n2-c2ccccc2)cc1` showed a z-score of 0.384.
Compound `Cn1c(=O)cc(SCC(=O)NCCC2=CCCCC2)c2ccccc21` has a z-score of -0.00869.
`O=C1COc2ccc(C(=O)COC(=O)CCc3ccc(S(=O)(=O)N4CCOCC4)cc3)cc2N1` was tested, and the z-score was 1.12.
With `O=C(C1Cc2ccccc2CN1S(=O)(=O)c1cccs1)N1CCCCC1` (stereo not drawn) the z-score was 0.27.
`c1coc(-c2nnc(-c3cccs3)o2)c1` showed a z-score of -0.402.
`CN1C(=O)N(CN2CCCCC2)C2C1N(C)C(=O)N2CN1CCCCC1` (stereo not drawn) showed a z-score of 0.636.
Compound `Fc1ccc(CSc2nncn2NC/C=C/c2ccccc2)cc1` has a z-score of -0.402.
Compound `CCOC(=O)c1cnn(-c2nc(-c3ccccc3F)cs2)c1C(F)(F)F` has a z-score of 0.107.
Compound `Cc1cc(=O)[nH]c2c(C)c(Cl)ccc12` has a z-score of -0.186.
With `COC(=O)c1c(NC(=O)C2COc3ccccc3O2)sc2c1CCN(C(C)=O)C2` (stereo not drawn) the z-score was -0.254.
With `CC(=O)NCc1cc(-c2nn(C)c(=O)c3ccccc23)ccc1C` the z-score was 0.0782.
`CC1C=CCC2C(=O)N(c3cccc(C(=O)N4CCCCCC4)c3)C(=O)C12` (stereo not drawn) was tested, and the z-score was 0.53.
Work on `COCCNC(=O)C(c1ccc(F)cc1)N(CC1CCCO1)C(=O)CCC(=O)Nc1ccccn1` (stereo not drawn) yielded a z-score of -0.385.
Work on `Cn1ncc(Cl)c1C(=O)NC(=S)Nc1sc2c(c1C#N)CCCCC2` yielded a z-score of 0.112.
Compound `CCOC(=O)c1cnn(-c2ccccc2)c1N` has a z-score of -0.137.
`Cc1c(NC(=O)/C=C/C(=O)O)cccc1[N+](=O)[O-]` showed a z-score of 0.28.
For `Cc1nn(Cc2cccc(C(=O)NCC(C)C)c2)c(C)c1Br`, the z-score was -1.42.
For `C=CCNC(=O)c1ccc(Sc2ccccc2)c([N+](=O)[O-])c1`, the z-score was -0.412.
`O=C(Nc1c2c(nc3ccccc13)CCCC2)c1ccccc1Cl` showed a z-score of -0.106.
`Cc1ccc(C)c(NC(=O)c2oc(=O)c3ccccc3c2-c2ccccc2)c1` showed a z-score of -0.466.
Work on `Cc1nnc(NC(=O)c2sc3nc(-c4cccs4)cc(C(F)(F)F)c3c2N)s1` yielded a z-score of -0.26.
`Cc1cccc(C(=O)Oc2csc(=S)n2C(=O)c2cccc(C)c2)c1` gave a z-score of 0.282.
In the case of `COc1ccc(Oc2nc(SC)nc3ccccc23)cc1`, the z-score is reported as -0.0187.
For `CC(C)NC(=O)/C(=N\O)c1ccccc1`, the z-score was 0.0549.
For `O=C(Cc1ccccc1)N[C@@H](Cc1ccccc1)c1nc2ccccc2[nH]1`, the z-score was -0.0491.
Work on `COc1cccc(NC(=O)COC(=O)c2ccccc2F)c1` yielded a z-score of 1.14.
`CC(=O)c1ccc2c(c1)c1ccccc1n2CC(C)C` gave a z-score of 0.108.
`CCOC(=O)COc1ccc(C)cc1-c1ccno1` showed a z-score of -0.341.
